Among all 310,000 compounds or so, about 14,000 (4.5%) showed an effect of 50% or more. Effects have a minus sign here. This is one part of the list.
Each compound was assayed against human ether-à-go-go-related gene (hERG) potassium channel (human, UniProt Q12809) (assay: primary screen, population patch clamp on CHO cells stably expressing hERG).
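Note: peak tail current of the secondary pulse compared with the same well before compound.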

Sequence of human ether-à-go-go-related gene (hERG) potassium channel (Q12809 whole entry, looked up): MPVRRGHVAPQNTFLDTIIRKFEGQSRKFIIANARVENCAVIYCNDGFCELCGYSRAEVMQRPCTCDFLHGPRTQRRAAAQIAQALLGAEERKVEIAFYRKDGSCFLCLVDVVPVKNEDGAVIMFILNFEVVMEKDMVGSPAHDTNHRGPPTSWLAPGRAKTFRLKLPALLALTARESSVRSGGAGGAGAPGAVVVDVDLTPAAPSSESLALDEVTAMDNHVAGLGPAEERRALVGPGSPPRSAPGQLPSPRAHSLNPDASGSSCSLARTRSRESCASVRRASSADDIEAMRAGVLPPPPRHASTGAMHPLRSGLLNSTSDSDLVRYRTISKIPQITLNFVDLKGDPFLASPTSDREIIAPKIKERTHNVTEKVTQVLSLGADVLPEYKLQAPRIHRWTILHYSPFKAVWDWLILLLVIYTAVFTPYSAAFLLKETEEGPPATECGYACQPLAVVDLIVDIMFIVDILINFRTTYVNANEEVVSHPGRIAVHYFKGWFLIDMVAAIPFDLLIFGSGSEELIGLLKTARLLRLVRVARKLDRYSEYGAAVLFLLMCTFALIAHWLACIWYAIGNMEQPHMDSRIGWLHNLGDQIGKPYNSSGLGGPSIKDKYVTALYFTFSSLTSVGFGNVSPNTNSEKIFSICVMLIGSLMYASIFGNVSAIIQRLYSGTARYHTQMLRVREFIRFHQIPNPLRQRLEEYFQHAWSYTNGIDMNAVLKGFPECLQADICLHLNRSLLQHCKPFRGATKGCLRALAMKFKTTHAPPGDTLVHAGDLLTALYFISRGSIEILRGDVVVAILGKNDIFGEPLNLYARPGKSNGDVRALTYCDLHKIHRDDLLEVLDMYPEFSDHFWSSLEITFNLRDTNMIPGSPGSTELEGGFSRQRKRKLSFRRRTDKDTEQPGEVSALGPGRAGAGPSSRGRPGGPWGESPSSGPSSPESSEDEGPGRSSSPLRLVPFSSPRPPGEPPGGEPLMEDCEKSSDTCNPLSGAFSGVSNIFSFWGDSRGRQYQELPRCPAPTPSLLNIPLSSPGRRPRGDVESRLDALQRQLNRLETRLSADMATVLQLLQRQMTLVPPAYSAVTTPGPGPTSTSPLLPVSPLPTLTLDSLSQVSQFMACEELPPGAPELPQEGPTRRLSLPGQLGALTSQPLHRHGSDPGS

| SMILES | hERG current change (%, negative = inhibition) at 10uM |
| --- | --- |
| Cc1nc(SCC(=O)c2ccc(F)cc2)n[nH]1 | 10.1% |
| O=C(c1ccc(-c2cccc(C(F)(F)F)c2)o1)N1CCOCC1 | -21.8% |
| Cc1ccc(C)c(NC(=O)CCC(=O)N/N=C/c2ccc3c(c2)OCO3)c1 | 9.41% |
| C/C(=N\Nc1ccc(Cl)c(C(=O)O)c1)c1ccc[nH]1 | 10.6% |
| CC(C(=O)Nc1ccc(N2CCOCC2)cc1)N1C(=O)NC(C)(C)C1=O (stereo not shown) | 17.6% |
| COc1ccc(C2/C=C\CN(C(=O)C3CC3)CC(=O)N2Cc2ccc(F)cc2)cc1 (stereo not shown) | -7.06% |
| CC(=O)N1CCN(C(=O)COc2ccccc2C(=O)Nc2ccccc2)CC1 | -53.2% |
| CCOC(=O)c1cc2c(=O)n3ccccc3nc2n(Cc2ccco2)c1=NC(=O)c1ccccc1OC | -68.9% |
| COc1ccc(CCC(=O)OCC(=O)N(C)c2c(N)n(Cc3ccccc3)c(=O)[nH]c2=O)cc1 | 10.1% |
| O=C(NC1CCSc2ccccc21)c1cccc(OC(F)F)c1 (stereo not shown) | -43.3% |
| COC(=O)C(Cc1ccccc1)OS(N)(=O)=O (stereo not shown) | 16.1% |
| Cc1cccc(NS(=O)(=O)c2cccc(C(=O)NCC(C)(C)N3CCOCC3)c2)c1 | 4.99% |
| COc1ccc(S(=O)(=O)N2CCCC2C(=O)Nc2ccc(O)cc2)cc1 (stereo not shown) | -1.6% |
| CCOc1ccc2ncc(S(=O)(=O)c3ccccc3)c(N3CCC4(CC3)OCCO4)c2c1 | -42.4% |
| CC1CC(C)CN(C(=O)CNC(=O)c2sc3ccccc3c2Cl)C1 (stereo not shown) | -43.2% |
| C=C(C)COc1ccc(-c2[nH]ncc2Oc2cccc(OC)c2)c(O)c1 | 13% |
| CC(C)c1nc(N2CCOCC2)c(C#N)c2c1CCCC2 | 2.45% |
| COC(=O)c1ccc(N/C=C\C(=O)c2ccc3c(c2)OCO3)cc1 | 9.01% |
| O=C(CSc1ccc(-c2ccc(Cl)cc2)nn1)N1CCCc2ccccc21 | -7.81% |
| COc1cc2cc(CN(Cc3cccnc3)C(=O)Nc3ccccc3F)c(=O)[nH]c2cc1OC | 8.25% |
| CN(C)c1ccc(NC(=O)CN2CCN(S(=O)(=O)c3cc(Cl)ccc3Cl)CC2)cc1 | -1.09% |
| NNC(=O)c1ccc(Cn2cc(Br)cn2)o1 | 2.95% |
| O=NC1=C(c2c(O)[nH]c3ccccc23)CCCC1 | -6.02% |
| Cl.N#Cc1cccc(C(c2nnnn2C2CCCC2)N2CCCCCC2)c1 (stereo not shown) | -32.4% |
| CCOC(=O)c1cnc(-c2ccccc2)nc1N1CC(C)OC(C)C1 (stereo not shown) | -5.42% |
| CCn1c(COc2cccc(C)c2)nnc1SCC(=O)Nc1cccc(C(=O)O)c1 | 9.41% |
| N#CCSc1nnc(-c2cccnc2)n1-c1ccccc1 | -7.93% |
| COc1ccc(NS(=O)(=O)c2cccc(C(=O)NCCCN3CCOCC3)c2)cc1 | 5.96% |

| SMILES | hERG current change (%, negative = inhibition) at 10uM |
| --- | --- |
| COc1cccc(C(C(=O)NC(C)(C)C)N(Cc2ccco2)C(=O)CCC(=O)Nc2cc(C)on2)c1OC (stereo not shown) | 6.21% |
| COC(=O)c1ccc(CN2C(=O)NC3(CCCCC3C)C2=O)o1 (stereo not shown) | -11.4% |
| CCC(C)[C@H](NC(=O)[C@@H]1Cc2ccccc2CN1)C(=O)Nc1ccc2c(c1)OCO2 (stereo partly shown) | -6.43% |
| COc1ccccc1CCc1nnc(CCC(=O)NC(C)Cc2cccc(C)n2)o1 (stereo not shown) | 6.37% |
| CCC(C)C(NC(N)=O)C(=O)Nc1ccc(S(=O)(=O)Nc2ccc(OC)cc2)cc1 (stereo not shown) | 17.7% |
| O=C(Nc1ccccc1)Nc1nncs1 | -10.3% |
| O=C(NCCN1CCOCC1)Nc1ccc(Cl)cc1Cl | -13.1% |
| CN(C)C(=O)CSc1nc(-c2ccccc2)c(-c2ccccc2)o1 | -12.2% |
| CCOc1ccc(C(=O)NCC(=O)N2CC=C(c3ccccc3)CC2)cc1OCC | -62.9% |
| CN(C)c1nc(N)nc(Cn2ccnc2)n1 | -14% |
| COc1ccccc1N(CC(=O)Nc1c(C)n(C)n(-c2ccccc2)c1=O)S(=O)(=O)c1ccc(C)cc1 | -21.5% |
| Cc1ccc(C(=O)Nc2c[nH]c(=O)[nH]c2=O)cc1 | 19% |
| CCOc1ccccc1C(=O)N1CCN(c2ccc(C(F)(F)F)cn2)CC1 | 2.27% |
| Cc1cc(=O)n2nc(-c3ccc(C(F)(F)F)cc3)sc2n1 | -2.3% |
| COc1cc(CNCc2cccs2)ccc1OCc1cccs1.Cl | -18.5% |
| Cc1cc(NC(=O)Cc2ccccc2C)no1 | 4.79% |
| O=c1oc2cc(OCCO)ccc2c2c1CCCC2 | 10.5% |
| COc1ccc2c(c1)OC[C@H]1[C@H]2N2C(=O)c3cc(OC)c(OC)cc3NC(=O)[C@@]2(C)[C@H]1c1ccccc1 | -5.16% |
| C/C(=N\Nc1nc2ccc(Cl)cc2o1)c1ccccc1 | 10.2% |
| Cc1cccc(C)c1-n1c(C)nn(CCOc2ccccc2)c1=O | 9.74% |
| O=C(COC(=O)CCCN1C(=O)c2cccc3cccc(c23)C1=O)Nc1ccc(Cl)cc1 | 3.07% |
| Cc1ccc2[nH]c(=O)c(CN(CC3CCCO3)S(=O)(=O)c3c(C)ccc4nsnc34)cc2c1 (stereo not shown) | -8.3% |
| COc1ccc(C(=O)NCC(c2cccs2)N2CCc3ccccc32)cc1OC (stereo not shown) | -18.5% |
| CCn1c(=O)cc(N2CCN(C(=O)c3ccco3)CC2)[nH]c1=O | 22.1% |
| Cc1cccc(Nc2ccc(C(=O)N3CCOCC3)cn2)c1 | 10.7% |
| CCCCN(C)C(=O)Cn1nc(Cc2ccncc2)c2ccccc2c1=O | -11.3% |
| Cc1nc(SCC(=O)N(CC(C)C)C2CCS(=O)(=O)C2)c2c(C)c(C)sc2n1 (stereo not shown) | -15.7% |

— publication PMC4336329 (PLoS ONE, 2015)
